Test results published in ChEMBL document CHEMBL1201862, “PubChem BioAssay data set” (2004).
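In this assay, cells in 96-well plates receive the compound at five concentrations for 48 hours. Endpoints are linearly interpolated between the surrounding concentrations. GI50 = concentration required for 50% inhibition of growth.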 Active and inactive are the calls of the source. No stated cut-off is given here; in the data, active = GI50 up to about 1.1 µM and inactive = higher.

The compounds below were run on NCI-H322M (assay: NCI tumour cell line growth inhibition, 48 h).

Row | SMILES | GI50
1 | CCOC(=O)O/N=C1/C(=C2/C(=O)Nc3ccccc32)Nc2ccccc21 | inactive: 6.01 µM
2 | COc1ccc(/C(Cl)=C(\C=O)c2ccccc2)cc1OC | inactive: 31.3 µM
3 | O=C(/C=C/c1ccccc1)CSc1nc2ccc(I)cc2c(=O)n1Cc1ccccc1 | inactive: 24.4 µM
4 | CO/C1=C\C(C)=C\C(C)C(O)C(C)C/C(C)=C/C=C/C(OC)C(C(C)C(O)C(C)C2(O)CC(O)C(C)C(C(C)C)O2)OC1=O (stereo not given) | active: 0.00127 µM
5 | CN1CCN(C(=O)c2cn(Cc3cncn3Cc3ccc4c(c3)OCO4)cc2-c2cccc3ccccc23)CC1 | inactive: 10.2 µM
6 | CCC1(CC)C(=O)N(C(=O)c2ccccc2)N(C(=O)c2ccc(Cl)cc2)C1=O | inactive: > 75 µM
7 | CCN(CC)c1ncnc2c1ncn2CCNC(CO)(CO)CO | inactive: > 100 µM
8 | N#Cc1cc(-c2nc3ccc(F)cc3s2)ccc1N | inactive: > 100 µM
9 | C=CCCCCCCCCCP(=O)(c1ccccc1)c1ccc2c(c1)OCCOCCOCCOCCO2 (stereo not given) | inactive: 15.1 µM
10 | C#CCCOC(=O)c1ccccc1OC(C)=O | inactive: > 100 µM
11 | CC1=CC(C)(C)[C@H]2O[C@@]3(O)C[C@]4(C)[C@H]5C[C@@](C(C)C)(O[C@H]4c4ccoc4)O[C@H]4[C@]5(C3)O[C@@]1(O)[C@]24O | inactive: 68.7 µM
12 | CCN(CC)CC(O)C1CCC(c2ccccc2)CC1 (stereo not given) | inactive: 42.1 µM
13 | C=C1c2nc3ccccc3n2C=C(c2ccc(C)cc2)N1c1ccc(C)cc1 | inactive: > 100 µM
14 | O=C1CC2(CCN(CC3COc4ccccc4O3)CC2)C(=O)N1N1CCCCCC1 (stereo not given) | inactive: > 100 µM
15 | O=C(CSc1ncnc2[nH]cnc12)c1ccccc1 | inactive: > 100 µM
16 | Nc1ccc2c3c1cccc3c(=O)n1c3ccc(Cc4ccc5c(c4)nc4c6ccc(N)c7cccc(c(=O)n54)c76)cc3nc21 | inactive: > 100 µM
17 | COc1ccc(-c2cs/c(=N\c3ccccc3)n2CC(O)c2ccc([N+](=O)[O-])cc2)cc1 (stereo not given) | inactive: > 100 µM
18 | Cc1ccsc1/C=N/Nc1ccc2ccccc2n1 | inactive: 23.3 µM

Row | SMILES | GI50
19 | Cc1ccnc2sc3ccccc3c(=O)c12 | inactive: 36.6 µM
20 | CCOP(=O)(OCC)C1=C(c2ccccc2)OC(N)=C(C#N)C1c1ccc(Cl)cc1 (stereo not given) | inactive: > 100 µM
21 | CCC/C(Cl)=N\OC(=O)Nc1ccc(F)c([N+](=O)[O-])c1 | inactive: > 100 µM
22 | O=C(O)C1OC(Oc2cc(O)c3c(=O)cc(-c4ccc(O)cc4)oc3c2)C(O)C(O)C1O (stereo not given) | inactive: > 100 µM
23 | CNC(=O)Nc1nc2cc([N+](=O)[O-])ccc2[nH]1 | inactive: > 100 µM
24 | CC(=O)/C=C/c1ccc(C2CC(C)=Nc3c(ccc4c3C(=O)c3ccccc3C4=O)N2)cc1 (stereo not given) | inactive: 19.2 µM
25 | COC(=O)c1sc(=S)sc1SCc1ccc(CSc2sc(=S)sc2C(=O)OC)cc1 | inactive: > 100 µM
26 | C1CN(P2(N3CC3)=NP(N3CC3)(N3CC3)=NP(N3CC3)(N3CC3)=N2)CCO1 (stereo not given) [FOTRETAMINE] | inactive: > 100 µM
27 | CCC1=CCN(c2ccc(C)cc2)OC1c1ccc(OC)cc1 (stereo not given) | inactive: > 100 µM
28 | COc1c(C)c(C/C=C(\C)CCCCO[Si](C(C)C)(C(C)C)C(C)C)c(OC)c2ccccc12 | inactive: > 100 µM
29 | COc1cc(C2c3cc4c(cc3OC(NC3CCCCC3)C2C)OCO4)cc(OC)c1OC (stereo not given) | active: 0.662 µM
30 | COc1ccc(N2C(=O)[C@@H](N=[N+]=[N-])[C@@H]2[C@H]2COC(C)(C)O2)cc1 | inactive: > 100 µM
31 | O=C(CC(=O)c1ccccc1)C(=O)NC12CC3CC(CC(C3)C1)C2 | inactive: > 100 µM
32 | COCC1OC(OC2C3=C(C(C)C)CCC3(C)/C=C3\C(CCC3(O)COC)C(C)C2O)C(O)C2OC3OC12OC3(C)C1CO1 (stereo not given) | inactive: 44.2 µM
33 | C=CCOn1c(C=C)nc2c(C)cccc21 | inactive: 4.28 µM
34 | O=c1c(-c2c(-c3ccccc3)oc3ccc(Cl)cc3c2=O)c(-c2ccccc2)oc2ccc(Cl)cc12 | inactive: > 100 µM
35 | O=NN(CCCl)C(=O)NC1CCSc2ccccc21 (stereo not given) | inactive: > 100 µM
